Results are given in words; binding and its absence hold for the method and conditions named. For some assays here: In cells and extracts the contact can be indirect. Some results given as binding are weak or reduced against the parent protein; the word gives no strength.

The chains behind the UniProt entries cited, without tags or fusion partners. Where a name states a change or a piece, a line headed by the entry shows the natural chain unless it says otherwise. A line that says so, or that is headed by a name, gives the form on record, which may keep a tag or linker.
UniProt P10415: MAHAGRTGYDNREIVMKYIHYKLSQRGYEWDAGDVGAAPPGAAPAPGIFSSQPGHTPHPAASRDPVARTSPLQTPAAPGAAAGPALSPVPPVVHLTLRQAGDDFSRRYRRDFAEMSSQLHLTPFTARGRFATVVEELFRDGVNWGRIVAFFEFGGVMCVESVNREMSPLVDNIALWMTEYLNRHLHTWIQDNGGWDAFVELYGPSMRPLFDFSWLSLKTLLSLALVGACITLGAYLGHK
UniProt Q14457: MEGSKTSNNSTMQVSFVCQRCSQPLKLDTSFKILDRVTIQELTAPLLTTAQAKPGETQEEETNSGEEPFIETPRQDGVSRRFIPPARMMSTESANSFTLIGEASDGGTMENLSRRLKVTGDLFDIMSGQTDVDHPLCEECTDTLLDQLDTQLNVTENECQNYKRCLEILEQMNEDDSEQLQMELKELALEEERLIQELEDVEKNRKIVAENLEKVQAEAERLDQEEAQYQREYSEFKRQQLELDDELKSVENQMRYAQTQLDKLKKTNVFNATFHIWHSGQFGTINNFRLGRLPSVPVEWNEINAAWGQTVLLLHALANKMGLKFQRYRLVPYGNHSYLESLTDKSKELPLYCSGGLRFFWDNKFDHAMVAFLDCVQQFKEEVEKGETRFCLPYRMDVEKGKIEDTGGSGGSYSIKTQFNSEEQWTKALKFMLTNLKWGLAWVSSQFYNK
UniProt P27546: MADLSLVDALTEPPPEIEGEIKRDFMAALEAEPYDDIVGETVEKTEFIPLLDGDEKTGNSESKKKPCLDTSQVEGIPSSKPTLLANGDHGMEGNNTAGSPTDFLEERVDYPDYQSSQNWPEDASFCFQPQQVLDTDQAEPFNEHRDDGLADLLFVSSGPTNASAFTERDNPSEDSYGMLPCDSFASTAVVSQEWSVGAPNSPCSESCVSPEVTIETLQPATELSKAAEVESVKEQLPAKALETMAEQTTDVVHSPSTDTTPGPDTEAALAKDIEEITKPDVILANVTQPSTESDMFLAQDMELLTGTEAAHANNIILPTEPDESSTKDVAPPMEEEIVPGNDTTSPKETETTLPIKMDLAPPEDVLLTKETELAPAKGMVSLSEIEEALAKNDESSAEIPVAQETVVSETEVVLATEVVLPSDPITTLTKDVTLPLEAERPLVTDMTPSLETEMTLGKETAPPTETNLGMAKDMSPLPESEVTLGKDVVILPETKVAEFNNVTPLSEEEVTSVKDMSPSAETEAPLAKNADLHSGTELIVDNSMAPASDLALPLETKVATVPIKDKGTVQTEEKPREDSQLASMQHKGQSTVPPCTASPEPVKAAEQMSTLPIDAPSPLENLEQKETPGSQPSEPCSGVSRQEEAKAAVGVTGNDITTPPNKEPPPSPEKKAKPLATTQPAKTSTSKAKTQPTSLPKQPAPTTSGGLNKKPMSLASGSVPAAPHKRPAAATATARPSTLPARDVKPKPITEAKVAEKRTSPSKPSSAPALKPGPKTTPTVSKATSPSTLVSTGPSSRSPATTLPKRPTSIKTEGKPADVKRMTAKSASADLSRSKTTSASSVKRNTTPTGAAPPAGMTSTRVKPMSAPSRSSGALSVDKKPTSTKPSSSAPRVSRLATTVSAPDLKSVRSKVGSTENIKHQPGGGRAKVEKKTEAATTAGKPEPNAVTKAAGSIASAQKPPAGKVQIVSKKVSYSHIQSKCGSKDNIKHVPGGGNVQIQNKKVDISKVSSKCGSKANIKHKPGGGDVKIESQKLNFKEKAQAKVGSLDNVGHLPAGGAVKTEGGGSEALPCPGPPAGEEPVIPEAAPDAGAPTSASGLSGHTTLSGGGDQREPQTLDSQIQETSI
HA-BH3-mutated MAP4 Glu (L83/G87/D88A and S737/S760E) (P27546, form named): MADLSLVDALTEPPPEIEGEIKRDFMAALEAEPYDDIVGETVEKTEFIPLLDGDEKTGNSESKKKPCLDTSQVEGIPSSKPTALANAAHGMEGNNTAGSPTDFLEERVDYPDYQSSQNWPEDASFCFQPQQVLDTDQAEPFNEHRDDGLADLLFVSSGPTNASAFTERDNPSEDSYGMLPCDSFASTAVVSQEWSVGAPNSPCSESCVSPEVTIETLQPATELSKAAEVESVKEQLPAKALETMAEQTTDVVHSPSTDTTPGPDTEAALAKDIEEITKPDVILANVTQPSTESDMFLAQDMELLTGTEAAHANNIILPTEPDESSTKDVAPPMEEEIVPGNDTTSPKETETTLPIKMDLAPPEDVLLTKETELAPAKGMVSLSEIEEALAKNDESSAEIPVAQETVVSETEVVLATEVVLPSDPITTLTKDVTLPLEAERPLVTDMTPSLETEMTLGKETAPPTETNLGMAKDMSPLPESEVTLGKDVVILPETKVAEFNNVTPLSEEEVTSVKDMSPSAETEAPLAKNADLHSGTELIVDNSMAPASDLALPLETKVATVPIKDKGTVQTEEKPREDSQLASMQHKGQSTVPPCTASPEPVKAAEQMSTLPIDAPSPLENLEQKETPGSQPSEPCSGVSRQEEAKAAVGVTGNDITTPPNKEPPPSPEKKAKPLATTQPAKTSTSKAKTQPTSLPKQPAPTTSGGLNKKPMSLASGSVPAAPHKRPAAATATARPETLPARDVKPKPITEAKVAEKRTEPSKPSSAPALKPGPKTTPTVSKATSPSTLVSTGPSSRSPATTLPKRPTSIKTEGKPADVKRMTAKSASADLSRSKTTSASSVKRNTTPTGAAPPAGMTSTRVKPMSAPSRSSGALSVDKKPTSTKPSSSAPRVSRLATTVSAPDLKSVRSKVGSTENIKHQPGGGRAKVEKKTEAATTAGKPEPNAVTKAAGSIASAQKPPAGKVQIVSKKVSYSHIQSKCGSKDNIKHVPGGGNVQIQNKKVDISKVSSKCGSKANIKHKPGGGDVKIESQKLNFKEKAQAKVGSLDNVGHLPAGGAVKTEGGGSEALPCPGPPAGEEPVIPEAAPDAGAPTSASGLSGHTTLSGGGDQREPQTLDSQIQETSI
HA-MAP4 (S737/760E, Glu) (P27546, form named): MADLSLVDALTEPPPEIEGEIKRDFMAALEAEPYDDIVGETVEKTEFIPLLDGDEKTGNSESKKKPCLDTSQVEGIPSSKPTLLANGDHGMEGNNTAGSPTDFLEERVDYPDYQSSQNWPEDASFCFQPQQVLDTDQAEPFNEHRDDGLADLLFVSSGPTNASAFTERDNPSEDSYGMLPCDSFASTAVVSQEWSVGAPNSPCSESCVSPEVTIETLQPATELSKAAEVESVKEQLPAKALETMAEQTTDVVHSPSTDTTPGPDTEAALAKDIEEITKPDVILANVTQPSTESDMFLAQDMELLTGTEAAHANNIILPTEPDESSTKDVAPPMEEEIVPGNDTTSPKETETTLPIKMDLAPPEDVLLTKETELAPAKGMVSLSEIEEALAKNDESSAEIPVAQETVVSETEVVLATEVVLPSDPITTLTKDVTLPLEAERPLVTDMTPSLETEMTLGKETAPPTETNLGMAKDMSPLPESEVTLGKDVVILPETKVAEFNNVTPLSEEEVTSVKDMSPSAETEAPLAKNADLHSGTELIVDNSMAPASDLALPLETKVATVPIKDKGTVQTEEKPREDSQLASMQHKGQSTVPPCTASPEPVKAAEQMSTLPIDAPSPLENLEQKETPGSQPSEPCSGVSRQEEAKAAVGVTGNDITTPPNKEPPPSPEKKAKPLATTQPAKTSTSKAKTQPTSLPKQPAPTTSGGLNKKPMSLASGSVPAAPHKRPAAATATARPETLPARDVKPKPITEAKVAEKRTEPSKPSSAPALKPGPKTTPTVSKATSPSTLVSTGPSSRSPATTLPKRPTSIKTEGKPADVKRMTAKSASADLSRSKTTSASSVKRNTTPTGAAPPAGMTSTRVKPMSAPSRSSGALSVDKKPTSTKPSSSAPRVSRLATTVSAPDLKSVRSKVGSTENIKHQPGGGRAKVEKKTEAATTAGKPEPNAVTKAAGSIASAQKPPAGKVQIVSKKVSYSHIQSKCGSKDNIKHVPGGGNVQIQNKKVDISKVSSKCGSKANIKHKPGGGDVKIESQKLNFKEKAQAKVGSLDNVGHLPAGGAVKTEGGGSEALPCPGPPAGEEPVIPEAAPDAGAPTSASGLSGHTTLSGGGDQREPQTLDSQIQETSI
UniProt P27816: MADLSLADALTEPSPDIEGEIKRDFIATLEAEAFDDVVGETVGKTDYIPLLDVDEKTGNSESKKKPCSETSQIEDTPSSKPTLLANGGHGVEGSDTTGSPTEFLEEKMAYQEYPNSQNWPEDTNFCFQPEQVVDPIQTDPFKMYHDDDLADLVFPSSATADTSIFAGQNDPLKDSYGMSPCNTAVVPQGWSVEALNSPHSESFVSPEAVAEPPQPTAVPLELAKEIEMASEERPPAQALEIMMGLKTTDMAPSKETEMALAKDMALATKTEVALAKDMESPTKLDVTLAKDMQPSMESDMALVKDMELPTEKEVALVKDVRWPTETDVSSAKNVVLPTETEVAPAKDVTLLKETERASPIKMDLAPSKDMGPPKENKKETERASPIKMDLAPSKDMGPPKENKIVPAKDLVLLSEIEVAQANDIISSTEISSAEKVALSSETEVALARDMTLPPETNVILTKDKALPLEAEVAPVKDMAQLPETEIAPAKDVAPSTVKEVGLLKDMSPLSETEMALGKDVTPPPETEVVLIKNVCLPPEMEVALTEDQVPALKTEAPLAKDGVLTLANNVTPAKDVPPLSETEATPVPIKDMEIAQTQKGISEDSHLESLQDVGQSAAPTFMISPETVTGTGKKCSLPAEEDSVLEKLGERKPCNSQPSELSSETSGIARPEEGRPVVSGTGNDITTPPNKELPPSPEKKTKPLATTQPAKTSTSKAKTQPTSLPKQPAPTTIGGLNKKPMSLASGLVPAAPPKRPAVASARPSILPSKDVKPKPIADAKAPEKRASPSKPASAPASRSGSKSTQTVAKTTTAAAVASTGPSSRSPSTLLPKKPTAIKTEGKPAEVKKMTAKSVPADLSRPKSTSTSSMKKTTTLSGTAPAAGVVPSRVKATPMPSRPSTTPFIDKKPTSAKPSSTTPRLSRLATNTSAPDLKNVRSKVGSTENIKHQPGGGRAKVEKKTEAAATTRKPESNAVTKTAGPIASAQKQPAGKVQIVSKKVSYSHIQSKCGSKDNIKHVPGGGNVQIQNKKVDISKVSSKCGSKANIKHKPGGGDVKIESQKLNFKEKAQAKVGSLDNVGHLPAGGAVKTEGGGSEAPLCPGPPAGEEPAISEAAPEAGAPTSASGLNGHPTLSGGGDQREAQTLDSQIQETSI

Test [1] addresses Bcl-2, endogenous in HaCaT keratinocytes (human (endogenous in HaCaT)) (UniProt P10415). Briefly: co-IP; endogenous proteins in HaCaT cells, control or hypoxia; RIPA lysate, MAP4, Bcl-2 or Beclin1 antibody 24 h at 4 °C, protein A/G-Sepharose, western blot. On the technique in general: Immunoblotting shows a protein as a band on a membrane.
The target is the same in test [2]. In words: co-IP; HaCaT cells transduced with MAP4 (Glu), MAP4 (Ala) or BH3-mutated MAP4 (Glu) adenovirus; RIPA lysate, protein A/G-Sepharose, western blot; Bcl-2 endogenous.
In test [3] the target is Bcl-2, entire coding region, yeast two-hybrid bait (UniProt P10415). In words: two-hybrid; pBT3-STE-Bcl-2 (bait) and pPR3-N-MAP4 (prey) co-transformed into yeast strain NMY51; growth selection on DDO, TDO or QDO plates at 30 °C for 3 days.

Take “Beclin1, endogenous in HaCaT keratinocytes (from UniProt Q14457 1-450)”: the binding result in test [1] was “binds”. Turning to “HA-BH3-mutated MAP4 Glu (L83/G87/D88A and S737/S760E) (from UniProt P27546 1-1125)”, the binding result in test [2] is recorded as “no binding”. Same read-out and setting: in the case of “HA-MAP4 (S737/760E, Glu) (from UniProt P27546 1-1125)” it was “binds”. Regarding “MAP4, endogenous in HaCaT keratinocytes (from UniProt P27816 1-1152)”, the binding result in test [1] was “binds”. Consider “microtubule-associated protein 4 (MAP4), entire coding region, yeast two-hybrid prey (from UniProt P27546 1-1125)”, for which the binding result in test [3] is reported as “binds”.

The values are drawn from article PMC10192331.
